In PubChem BioAssay (NCATS):
The shares of active, inactive and inconclusive entries below differ from those in the screen. Activity calls are given as the source filed them. Unless noted, the call rests on the fitted dose curve; in most records, active means well fitted curve in either direction with a large enough effect (not every such curve was filed as active); inconclusive means small, poorly fitted or top-dose-only effect, or another doubt; inactive means flat fitted curve, though single readings scatter.

tested on: not listed separately; assay: AP1 Signaling Pathway (AID 357); conditions: ME-180 (cervical carcinoma) AP-1-bla reporter, EGF-induced, beta-lactamase ratio, 5 h; at 17.2 µM (top of the series) unless noted;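 further: ME-180 reporter cells stimulated with EGF at its EC50 level; top concentration of the series differs between compounds; on the % scale 0 is the no-effect control and ±100 the full control effect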
Method in brief: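 AP-1-bla ME-180 cells, Opti-MEM + 0.5% dialyzed FBS, plated overnight 37 °C. Cpd titration + EC50 EGF, 5 h 37 °C. CCF4 2.5 h RT; ex 405, em 460/530 ratio → %activity, AC50.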

Structure (SMILES) | activity change, negative = inhibition
CN1CCN(c2ncc3nc(-c4cc(F)cc(F)c4)c(=O)n(Cc4cccs4)c3n2)CC1 | inconclusive: 120% [activator] [at 7.69 µM]
c1cncc(-c2cncnc2NCc2cccs2)c1 | inconclusive: 41.5% [activator] [at 7.69 µM]
CN(C)c1ncc2nc(-c3ccc(Cl)cc3)c(=O)n(Cc3ccc(F)cc3)c2n1 | active: 115% [activator] [at 7.69 µM]
N#Cc1cccc(-c2nc3cnc(N4CCOCC4)nc3n(C3CC3)c2=O)c1 | inconclusive: 85.7% [activator] [at 7.69 µM]
COc1ccc(-c2nc3cnc(OCc4ccccc4)nc3n(CCC#N)c2=O)cc1 | inconclusive: 104% [activator] [at 7.69 µM]
O=c1c(-c2ccc(Cl)cc2)nc2cnc(N3CCNCC3)nc2n1Cc1cccs1 | inconclusive: 75.3% [activator] [at 7.69 µM]
COc1cccc(Cn2c(=O)c(-c3ccc(Cl)cc3)nc3cnc(N4CCOCC4)nc32)c1 | inconclusive: 132% [activator] [at 7.69 µM]
COc1cccc(-c2ccc3ncnc(NCc4ccccc4)c3c2)c1 | inconclusive: -121% [inhibitor] [at 7.69 µM]
Clc1ccccc1-c1nc(NCc2cccs2)c2ccccc2n1 | inconclusive: 68% [activator] [at 7.69 µM]
COc1ccc2[nH]cc(CCNc3ncnc4ccc(-c5cccnc5)cc34)c2c1 | inconclusive: -55.9% [inhibitor] [at 7.69 µM]
CN(C)c1ccc(-c2ccc3ncnc(NC4CC4)c3c2)cc1 | inconclusive: -37.6% [inhibitor] [at 7.69 µM]
Fc1ccc(Nc2ncnc3ccc(-c4ccoc4)cc23)cc1 | inconclusive: -116% [inhibitor] [at 7.69 µM]
CCNc1ncc2nc(-c3cc(F)cc(F)c3)c(=O)n(C)c2n1 | inconclusive: 70.3% [activator] [at 7.69 µM]

target: Cytochrome P450 1A2 (Homo sapiens) (UniProt P05177); assay: p450-cyp1a2 (AID 410; calls by dose curve; further: potency means the concentration at half of the fitted maximal effect); conditions: recombinant CYP1A2, luciferin-ME demethylation, luminescence; series mostly up to 57 µM
Method in brief: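 20nM CYP1A2 with 100uM Luciferin-ME (at Km) in 100mM KPO4; compound preincubated 10 min, NADPH regeneration added, 60 min at room temperature. Luciferin quantified by luminescence after detection reagent; normalized to 57 uM furafylline.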

Chain of UniProt P05177 (P05177 whole entry, looked up): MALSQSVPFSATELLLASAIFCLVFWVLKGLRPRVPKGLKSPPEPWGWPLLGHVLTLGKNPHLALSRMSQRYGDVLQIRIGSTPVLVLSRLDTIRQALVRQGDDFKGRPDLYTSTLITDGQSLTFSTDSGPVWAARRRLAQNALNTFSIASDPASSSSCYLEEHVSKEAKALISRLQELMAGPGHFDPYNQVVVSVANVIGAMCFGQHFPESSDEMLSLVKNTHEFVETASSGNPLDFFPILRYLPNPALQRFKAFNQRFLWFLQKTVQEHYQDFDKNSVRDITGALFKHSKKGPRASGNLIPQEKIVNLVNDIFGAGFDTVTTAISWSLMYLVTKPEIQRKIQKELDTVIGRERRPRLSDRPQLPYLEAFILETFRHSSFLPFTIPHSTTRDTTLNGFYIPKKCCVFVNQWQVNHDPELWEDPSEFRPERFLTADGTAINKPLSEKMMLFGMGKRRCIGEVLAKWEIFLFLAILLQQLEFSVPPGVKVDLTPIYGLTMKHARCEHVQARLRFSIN

Structure (SMILES) | Potency
N#Cc1cccc(-c2nc3cnc(N4CCOCC4)nc3n(C3CC3)c2=O)c1 | active: 2510 nM
COc1cccc(-c2nc(NCCNC(C)=O)c3ccccc3n2)c1 | active: 2510 nM
CCNc1ncc2nc(-c3cc(F)cc(F)c3)c(=O)n(C)c2n1 | active: 2000 nM
